# Laboratory results reported in PubChem BioAssay AID1159614 (National Center for Advancing Translational Sciences (NCATS), 2016).
# The campaign covered roughly 45,000 compounds. About 65 (0.1%) were called active. The call rests on the fitted dose curve; in most records, active means well fitted activation curve with a large enough effect; inconclusive means small, poorly fitted or top-dose-only effect; inactive means no such curve, though single readings can be large or run the other way. Some of the results follow.
# Molecular target: Galactocerebrosidase (Homo sapiens) (UniProt P54803)
# Assay: A Novel Cell-Based Assay to Identify Small Molecules for B -Galactocerebrosidase; further: 0% is about no effect; nearly all actives have a fitted effect of over 65% in size
# Details: 145M-Twi-hGALC-G270D cells, HMU-beta-Gal fluorescence, 48 h; series mostly up to 57.5 µM; activation: at the top concentration
# Procedure, shortened: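 qHTS, 1536-well; 145M-Twi-hGALC-G270D cells (WT line also made) in DMEM/F12 + 10% FBS; compound incubation on live cells; HMU-β-gal 0.1 mM final, pH 5.2, NaTC; carbonate stop; fluorescence increase = enhanced residual activity.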
# Sequence of UniProt P54803 (P54803 whole entry, looked up): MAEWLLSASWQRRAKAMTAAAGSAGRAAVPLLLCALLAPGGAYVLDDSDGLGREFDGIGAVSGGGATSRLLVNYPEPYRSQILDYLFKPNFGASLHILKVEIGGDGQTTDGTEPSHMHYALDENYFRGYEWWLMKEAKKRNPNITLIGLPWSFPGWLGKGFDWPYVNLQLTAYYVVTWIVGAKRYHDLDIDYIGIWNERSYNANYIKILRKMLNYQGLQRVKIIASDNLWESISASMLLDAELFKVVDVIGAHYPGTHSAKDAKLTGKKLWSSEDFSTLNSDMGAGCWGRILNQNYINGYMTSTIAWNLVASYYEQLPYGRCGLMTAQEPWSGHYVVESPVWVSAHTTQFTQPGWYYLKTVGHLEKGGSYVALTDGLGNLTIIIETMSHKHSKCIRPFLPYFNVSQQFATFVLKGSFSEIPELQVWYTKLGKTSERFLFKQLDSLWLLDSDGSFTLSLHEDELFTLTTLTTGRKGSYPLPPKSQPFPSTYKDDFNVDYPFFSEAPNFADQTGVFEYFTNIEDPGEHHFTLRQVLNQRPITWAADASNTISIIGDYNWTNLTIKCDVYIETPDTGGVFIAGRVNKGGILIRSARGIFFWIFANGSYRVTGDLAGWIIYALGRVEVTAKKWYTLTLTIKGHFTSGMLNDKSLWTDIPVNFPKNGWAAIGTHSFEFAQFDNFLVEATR
SMILES,activation,Potency
COc1ccc(-c2nc(SCC(=O)NCCCc3ccccc3)n[nH]2)cc1,inactive: -5.18%,
CCOc1ccc(C2c3c(-c4ccccc4O)n[nH]c3C(=O)N2Cc2ccncc2)cc1 (configuration not stated),inactive: -7.47%,
CCc1ccc(C(=O)c2cn(CC(=O)Nc3ccc(F)cc3)c3cc4c(cc3c2=O)OCO4)cc1,inactive: -16.4%,
Cc1cc(OCC(=O)Nc2sc3c(c2C(N)=O)CCCC3)ccc1C(C)C,inactive: 5.4%,
Cc1cccc(-c2noc(C3CC(=O)N(c4ccc5c(c4)OCCO5)C3)n2)c1 (configuration not stated),inactive: -16.9%,
Cc1ccc(N(CC(=O)NC(C)c2ccccc2)S(=O)(=O)c2c(C)noc2C)cc1 (configuration not stated),inactive: -18.2%,
COc1ccc(NC(=O)Cn2c(C)c3cnn(-c4ccccc4)c(=O)c3c2C)c(OC)c1,inactive: -16.5%,
CN(C(=O)CCNC(=O)Cn1cnc2ccccc2c1=O)c1ccccc1F,inactive: -1.53%,
CCCn1c(=O)n(-c2ccccc2)c(=O)c2sc3ccccc3c21,inactive: -10.3%,
CCOc1ccc(CCNC(=O)CN2CCN(Cc3ccc(F)cc3Cl)C2=O)cc1OCC,inactive: -13%,
C=CCc1c(C)nc2nc(SCC(=O)Nc3ccccc3CC)nn2c1C,inactive: -12.7%,
COc1cccc(-c2nc3c(c(SCc4ccccc4)n2)Cc2c(CO)cnc(C)c2O3)c1,inactive: -13.8%,
NC(=O)c1cc(S(=O)(=O)NCc2ccccc2)cs1,inactive: 4.68%,
CC(C)Cc1nn2c(=O)cc(COC(=O)c3cccc(NC(=O)CCc4ccccc4)c3)nc2s1,inactive: -20.2%,
C=Cc1ccc(CSc2nc(-c3ccc(OC)cc3)nc3c2Cc2c(CO)cnc(C)c2O3)cc1,inactive: -3.74%,
CCOC(=O)CSc1nc2cc3c(cc2c(=O)n1CCCC(=O)NCc1ccc2c(c1)OCO2)OCO3,inactive: -5.26%,
CCCOc1ccccc1C(=O)N1CCC(c2nc3ccccc3s2)CC1,inactive: -12.1%,
NCCc1nnc(SCc2ccc(Cl)cc2)o1,inactive: -0.451%,
COc1ccccc1C(=O)Nc1nc2ccc(S(=O)(=O)N3CCCC3)cc2s1,inactive: -10.9%,
COc1ccc(C(=O)CN2C(=O)N(c3cc(C)cc(C)c3)S(=O)(=O)c3ccccc32)cc1,inactive: -7.55%,
Clc1ccc(CCNc2ncnc3c2c(-c2ccccc2)cn3-c2ccccc2)cc1,inactive: -11.8%,
CCN(CC)C(=S)SSC(=S)N(CC)CC,,inactive
COc1cc(C(=O)Nc2cc(C)ccc2OCc2cc(=O)n3cc(C)sc3n2)cc(OC)c1OC,inactive: -3.83%,
CCOC(=O)c1ccc(Nc2c(-c3ccc(O)cc3)nc3nc[nH]n23)cc1,inactive: -11.2%,
Cc1ccccc1CS(=O)(=O)Cc1ccc(C(=O)NCCc2ccccc2)o1,inactive: -8.78%,

SMILES,activation,Potency
COc1ccccc1CNC(=O)Cn1ncc2c(=O)oc3ccc(C)cc3c21,inactive: -21%,
Cc1ccc(Nc2c(-c3ccc(C)cc3)nc3cnccn23)cc1,inactive: 0.848%,
CCCCC(=O)Nc1cccc(OCc2cc(=O)n3ccccc3n2)c1,inactive: -4.72%,
CC(=O)Nc1c(C)nn(-c2ccccc2)c1N1CCC(C(=O)Nc2cc(Cl)ccc2C)CC1,inactive: 1.89%,
CCc1ccccc1NC(=O)c1cc(S(=O)(=O)NCCc2ccc(OC)c(OC)c2)ccc1F,inactive: -28.4%,
CCOc1ccc(NC(=O)C(C)Sc2nnc3cc(C)c4ccccc4n23)cc1 (configuration not stated),inactive: -9.69%,
Cc1nnc(NC(=O)c2nc(S(=O)(=O)Cc3ccccc3)ncc2Cl)s1,inactive: -17.2%,
CCOC(=O)c1ccc(NC(=O)c2oc3ccc4c(c3c2C)C(=O)CC(C)(CC)O4)cc1 (configuration not stated),inactive: -33.3%,
Cc1ccc(NC(=O)CSc2nc3c(c(=O)[nH]2)CN(Cc2ccc4c(c2)OCO4)CC3)cc1C,inactive: -11.7%,
Cn1c(=O)c2c(SCC(=O)NCc3ccco3)nc(-c3ccccc3Cl)nc2n(C)c1=O,inactive: -13.2%,
CCOC(=O)C1CCCN(c2ncnc3c2cnn3-c2ccc(C)c(Cl)c2)C1 (configuration not stated),inactive: -24.2%,
CC(C)c1ccc(CNCCSc2nnnn2C)cc1,inactive: -19.3%,
COc1ccc(C)cc1NC(=O)C(=O)NCCc1csc(-c2ccc(C)cc2)n1,inactive: -5.79%,
C=C[C@@]1(C)CC(=O)[C@]2(O)[C@@]3(C)[C@@H](O)CCC(C)(C)[C@@H]3[C@H](O)[C@H](OC(C)=O)[C@@]2(C)O1,inactive: -11.6%,
O=C(O)[C@@H]1CSCN1,inactive: -4.58%,
Cc1cc2nc3ccc(=[N+](C)C)cc-3sc2cc1N,inactive: -7.6%,
CCCOc1ccc(C2c3c(-c4ccccc4O)n[nH]c3C(=O)N2Cc2ccncc2)cc1OCC (configuration not stated),inactive: -11.8%,
Cc1cccc(NC(=O)C(=O)NCC(c2cccnc2)N2CCOCC2)c1 (configuration not stated),inactive: -10%,
O=C(Cc1ccc(F)cc1)N1CCC(c2nc3c(nnn3Cc3ccc(Cl)cc3)c(=O)[nH]2)CC1,inactive: -8.86%,
COc1ccc(-c2noc(C3CC(=O)N(c4cc(C)cc(C)c4)C3)n2)cc1 (configuration not stated),inactive: -12%,
CN(C(=O)CSc1cn(CC(=O)N2CCCCC2)c2ccccc12)c1ccccc1,inactive: -9.75%,
CCc1nn(CC(=O)Nc2cccc(C)c2C)c(=O)c2cc3sccc3n12,inactive: -37%,
CCOC(=O)c1c(C)c(C(=O)NCCc2ccc(OC)cc2)c(C)n1C,inactive: -16.1%,
Cc1ccc(CCNC(=O)C2CCCN(Cc3nc(-c4cccc(Cl)c4)oc3C)C2)cc1 (configuration not stated),inactive: -22.7%,
CC1=C(C(=O)Nc2ccc(Cl)cc2)C(C(C)C)n2nc(SCc3cccc(C)c3)nc2N1 (configuration not stated),inactive: -11.1%,

SMILES,activation,Potency
CN1CCN(CCCNC(=O)c2cnn(-c3ccccc3)c2C2CCN(C(=O)OC(C)(C)C)CC2)CC1,inactive: -1%,
CCC(C)NC(=O)c1ccc2c(c1)N(Cc1ccccc1)C(=O)c1ccccc1S2(=O)=O (configuration not stated),inactive: -1.44%,
Cc1ccc2nc(-c3ccccn3)c(Nc3ccc(F)cc3)n2c1,inactive: -13.4%,
CCC(Oc1ccccc1)C(=O)Nc1ccccc1OCc1cc(=O)n2ccccc2n1 (configuration not stated),inactive: -13%,
COc1cccc(-n2ccnc2SCC(=O)Nc2cccc(C)c2C)c1,inactive: -14.5%,
COc1ccc(-c2nc3c(C#N)c[nH]n3c2NC2CCCCC2)c(OC)c1,inactive: -11.7%,
COc1ccc(-n2ncc(C(=O)NCc3ccccc3)c2C2CCN(C(=O)OC(C)(C)C)CC2)cc1,inactive: -5.94%,
CCc1ccc(NC(=O)Cn2cnc3sc(C)c(S(=O)(=O)N4CCC(C)CC4)c3c2=O)cc1,inactive: -1.14%,
CCCC(=O)NCC(c1ccc2c(c1)OCO2)N1CCN(c2ccc(F)cc2)CC1 (configuration not stated),inactive: -9.46%,
CCOc1ccccc1CNC(=O)Nc1cn(CC(C)C)c(=O)c2ccccc12,inactive: -23.3%,
Cc1ccc(OCc2nc3ccccc3n2CC(C)C)cc1,inactive: -14.2%,
COc1ccc(CCNC(=O)CCn2c(=O)c3cccn3c3ccc(F)cc32)c(OC)c1OC,inactive: -16.7%,
CCCN(C(=O)c1cc2c(s1)-c1ccccc1SC2)c1ccccc1F,inactive: -8.91%,
COc1ccc(N(CC(=O)NC(C)c2ccccc2)S(=O)(=O)c2c(C)noc2C)cc1 (configuration not stated),inactive: -9.64%,
Cc1ccc(CN2CCC(CNc3ncnc4onc(-c5ccc(Cl)cc5)c34)CC2)cc1,inactive: -13.1%,
CC1(c2ccc(Cl)cc2)CC(C)(C)N(C(=O)c2ccccc2)c2ccccc21 (configuration not stated),inactive: 1.88%,
CC(Oc1ccccc1)C(=O)Nc1nc2ccc(S(N)(=O)=O)cc2s1 (configuration not stated),inactive: -15.4%,
Cc1cc2c(cc1S(=O)(=O)NCc1ccc(N(C)C)cc1)OCC(=O)N2,inactive: -13.5%,
CC(C)(C)NS(=O)(=O)c1ccc2nc(NC(=O)c3cccnc3)sc2c1,inactive: -10.5%,
COC(=O)CNC(=O)Nc1cc(C(=O)NCc2ccc(C)cc2)ccc1N1CCCC1,inactive: -28.8%,
CCOC(=O)c1noc2ncnc(N3CCN(c4ccccc4OC)CC3)c12,inactive: -3.72%,
CCOC(=O)c1c(C)c(-c2ccccc2)n(CC(=O)Nc2cc(OC)cc(OC)c2)c1C,inactive: 1.9%,
COc1cc(C2NC(=O)NC(C)=C2C(=O)Nc2cc(C)cc(C)c2)ccc1O (configuration not stated),inactive: 1.67%,
O=C(CSc1nc2ccccc2c2nc(-c3ccccc3)nn12)Nc1ccc(Br)cc1,inactive: -16.4%,
CC(C)(C)c1cc(C(C)(C)C)c2oc(=O)c(-c3nc4ccccc4[nH]3)cc2c1,inactive: -11.7%,

SMILES,activation,Potency
CCc1cc(C(=O)Nc2c(C)nn(Cc3ccc(C)cc3)c2C)no1,inactive: -8.95%,
Cc1ccc(Cn2c(SCC(=O)NCc3ccc(Cl)cc3)nc3ccsc3c2=O)cc1,inactive: -27.1%,
COc1ccc(C)cc1NC(=O)c1oc2ccc(S(=O)(=O)N(C)C3CCCCC3)cc2c1C,inactive: -14%,
CC(=O)N1c2ccccc2CC1C(=O)N1CCN(c2ccc(F)cc2)CC1 (configuration not stated),inactive: -14.3%,
COC(=O)C1CCN(S(=O)(=O)c2cc3c4c(c2)C(C)C(=O)N4CCC3)CC1 (configuration not stated),inactive: -7.7%,
O=C(Nc1ccc(F)cc1F)c1ccc(CN2CC(=O)N3CCCCC3C2=O)cc1 (configuration not stated),inactive: -3.36%,
COc1cccc(N2CCN(C(=O)C3CCC(CNS(=O)(=O)c4ccc(Br)s4)CC3)CC2)c1 (configuration not stated),inactive: -33.6%,
Cc1ccc(NC(=O)CN2CCCN(Cc3cc(C)ccc3C)S2(=O)=O)c(Cl)c1,inactive: 0.862%,
CCS(=O)(=O)N1CC(=O)N(c2ccccc2C)C(C)(C(=O)NC2CCCCC2)C1 (configuration not stated),inactive: -10.5%,
COCCCNC(=O)Cn1c(=O)n(-c2ccc(C)cc2)c(=O)c2c1c1cc(C)ccc1n2C,inactive: 1.78%,
CN(C)c1ccc(C(CNC(=O)COc2ccc(Cl)cc2)N2CCOCC2)cc1 (configuration not stated),inactive: -20.1%,
Cc1ccc(Cl)cc1N1CCN(C(=O)c2cn(C3CCCCC3)c(=O)c3c2c2ccccc2n3C)CC1,inactive: -23.6%,
COc1ccc(NC(=O)CSc2nnc(-c3ccc(C)cc3)o2)cc1,inactive: -9.29%,
Cc1ccc(NC(=O)c2cc(S(=O)(=O)N3CCOCC3)c(Cl)cc2Cl)cc1,inactive: -2.75%,
COCCNC(=O)CCC(=O)NNc1nc2ccccc2c2nc(-c3ccccc3)nn12,inactive: -16.7%,
CCOc1ccc(NC(=O)CSc2ncc3c(n2)-c2ccccc2N(C)S3(=O)=O)cc1,inactive: -7.05%,
Clc1ccccc1-c1nc(Nc2ccccc2)nc2ccc(Br)cc12,inactive: -5.15%,
Cc1ccc(NC(=O)N2CCC(n3c(C)nc4cccnc43)CC2)c(Cl)c1,inactive: -13.5%,
CCC(Oc1ccccc1)C(=O)Nc1nnc(S(=O)(=O)Nc2ccccc2)s1 (configuration not stated),inactive: -18.7%,
CCc1ccc(CNC(=O)c2ccc(CSc3nc4ccncc4n3Cc3ccccc3)cc2)cc1,inactive: -5.19%,
COc1ccc(CNC(=O)Nc2cn(CC(C)C)c(=O)c3ccccc23)c(OC)c1,inactive: -17.3%,
Cc1cc(C)cc(NC(=O)C2CCN(S(=O)(=O)c3cccc4nonc34)CC2)c1,inactive: -10.7%,
